# Reference: paper PMC4336329 (PLoS ONE, 2015)
# Out of some 310,000 compounds screened, about 14,000 (4.5%) showed an effect of 50% or more. The effect is printed as a negative number. The list shows a part of the results.
# Molecular target: human ether-à-go-go-related gene (hERG) potassium channel (human, UniProt Q12809)
# Experiment: primary screen, population patch clamp on CHO cells stably expressing hERG
# 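Note: peak tail current of the secondary pulse compared with the same well before compound.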
# Chain of human ether-à-go-go-related gene (hERG) potassium channel (Q12809 whole entry, looked up): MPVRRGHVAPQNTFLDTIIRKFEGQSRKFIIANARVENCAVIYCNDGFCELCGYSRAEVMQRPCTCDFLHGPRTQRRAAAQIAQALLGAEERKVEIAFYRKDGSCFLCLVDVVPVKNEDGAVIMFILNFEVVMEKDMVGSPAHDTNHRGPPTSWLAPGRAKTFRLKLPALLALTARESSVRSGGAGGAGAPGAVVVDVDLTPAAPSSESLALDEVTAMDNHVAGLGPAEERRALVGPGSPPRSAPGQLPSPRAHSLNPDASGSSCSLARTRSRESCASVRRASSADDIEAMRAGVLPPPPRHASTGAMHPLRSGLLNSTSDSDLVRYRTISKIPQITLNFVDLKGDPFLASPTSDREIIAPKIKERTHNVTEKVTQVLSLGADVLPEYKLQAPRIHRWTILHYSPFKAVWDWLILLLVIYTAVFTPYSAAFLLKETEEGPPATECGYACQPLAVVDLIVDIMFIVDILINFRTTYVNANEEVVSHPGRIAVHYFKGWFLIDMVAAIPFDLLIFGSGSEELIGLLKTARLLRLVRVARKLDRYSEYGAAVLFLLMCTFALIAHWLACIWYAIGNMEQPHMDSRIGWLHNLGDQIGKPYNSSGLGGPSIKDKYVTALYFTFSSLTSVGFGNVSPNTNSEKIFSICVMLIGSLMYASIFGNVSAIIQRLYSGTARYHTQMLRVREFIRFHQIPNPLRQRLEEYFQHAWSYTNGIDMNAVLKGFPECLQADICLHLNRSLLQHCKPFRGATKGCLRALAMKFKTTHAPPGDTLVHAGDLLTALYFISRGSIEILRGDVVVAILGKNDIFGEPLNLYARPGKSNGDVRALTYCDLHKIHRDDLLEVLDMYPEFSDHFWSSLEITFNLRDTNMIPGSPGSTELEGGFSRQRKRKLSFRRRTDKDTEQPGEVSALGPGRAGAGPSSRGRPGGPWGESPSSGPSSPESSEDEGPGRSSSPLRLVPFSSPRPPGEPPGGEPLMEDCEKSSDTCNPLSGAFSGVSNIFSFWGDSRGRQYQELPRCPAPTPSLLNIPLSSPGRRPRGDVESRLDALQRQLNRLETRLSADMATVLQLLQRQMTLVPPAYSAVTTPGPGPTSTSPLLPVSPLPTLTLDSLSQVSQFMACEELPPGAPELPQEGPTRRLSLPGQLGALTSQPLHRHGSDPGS
row,Structure (SMILES),"hERG current change (%, negative = inhibition) at 10uM [%]"
1,CC(C)c1cccc(OCCN2CCCC2)c1,5.18
2,O=C(COc1ccccc1F)Nc1cc(S(=O)(=O)N2CCOCC2)ccc1N1CCOCC1,-13.7
3,COc1ccc(N2CCN(C(=O)COC(=O)c3ccc(CSC)o3)CC2)cc1,-24.6
4,CCCCNS(=O)(=O)c1ccc(NC(=O)C2c3ccccc3Oc3ccccc32)cc1,-2.69
5,CC(=O)c1cc(C)ccc1OC(=O)CN1C(=O)c2ccccc2C1=O,22.8
6,O=C(O)C(=O)O.O=C(c1ccccc1F)N1CCN(C2CCC(c3ccccc3)CC2)CC1 (centres unmarked),-60.5
7,CNC(=O)COc1coc(CN2CCN(Cc3ccccc3)CC2)cc1=O,1.83
8,CC(C)(Oc1ccc(Cl)cc1)C(=O)NC1CCCCC1,0.43
9,Cn1c(O)c(C(=Nc2ccc(F)cc2)c2ccccc2)c(=O)n(C)c1=O,12.2
10,Cl.Fc1ccccc1N1CCN(C(c2cccs2)c2nnnn2CCc2ccccc2)CC1 (centres unmarked),5.92
11,Cc1nn(C(C)(C)C)c(NC(=O)c2ccc(Cl)cc2)c1Br,11.6
12,Cc1nccn1CC(=O)N/N=C/c1cccc(O)c1,18.8
13,Cc1ccc(NC(=O)c2ccc(Cl)c(S(=O)(=O)NCC3CCCO3)c2)c(O)c1 (centres unmarked),10.6
14,O=C(c1ccco1)N1CCN(C(=O)c2ccccc2[N+](=O)[O-])CC1,22.4
15,CS(=O)(=O)c1ccc(C(=O)Nc2cc(S(C)(=O)=O)ccc2Cl)cc1,-6.33
16,Cc1cccc(Cn2nnc3c2C(=O)c2ccccc2C3=O)c1,19.8
17,Cc1cccc(OC(=O)c2ccncc2)c1C,14.5
18,C=CCOC(=O)C1=C(C)NC(SCC(=O)NC(=O)OCC)=C(C#N)C1c1cccnc1 (centres unmarked),-32.1
19,CC1(C)Cc2c(sc3nc(N/N=C/c4ccccc4)[nH]c(=O)c23)CO1,-0.86

row,Structure (SMILES),"hERG current change (%, negative = inhibition) at 10uM [%]"
1,CCn1c2ccccc2c2nnc(SCC(=O)Nc3ccc4c(c3)OCO4)nc21,7.67
2,O=C(/C=C/c1ccccc1)NCCSCc1ccccc1,-11.9
3,Cc1ccc(Nc2nc(N)c([N+](=O)[O-])c(N3CCOCC3)n2)cc1,2.23
4,COC(=O)CSC(=S)N1CCCC(C)C1 (centres unmarked),7.86
5,COc1ccc(OC)c(NC(=O)Nc2cccc3ccccc23)c1,-0.98
6,CCOC(=O)CC1C(=O)NCCN1C(=O)c1ccc(Cl)cc1 (centres unmarked),12.9
7,N#Cc1c(NC(=O)CSc2nnc(-c3ccco3)n2-c2ccccc2)sc2c1CCC2,-2.82
8,Clc1ccc(COc2ccccn2)c(Cl)c1,3.32
9,COc1ccc(CN2C(=O)c3cccnc3C2=O)cc1S(=O)(=O)NCc1ccc(C)cc1,1.73
10,COCCSc1nnc(NC(=O)Cc2ccc(OC)cc2)s1,11.5
11,Cc1ccc2oc(=O)c3cc(C(=O)N4CCN(C(=O)c5ccco5)CC4)sc3c2c1,-21.5
12,C[C@H](NC(=O)c1nc[nH]c1C(=O)N1CCN(C(=O)OC(C)(C)C)CC1)C(=O)OCc1ccccc1,-5.68
13,CCN1CCN(CCCNC(=O)CCCn2nc(C)c3sc4ccccc4c3c2=O)CC1,3.8
14,Cc1ccc(S(=O)(=O)N(CC(=O)Nc2cccnc2)c2ccc(Br)cc2)cc1,-50.3
15,COC(=O)CNC(=O)COC(=O)c1ccc(OC)c([N+](=O)[O-])c1,-19.5
16,Cc1cc(C)nc(SCc2nnc(SCC#N)n2-c2cccc(Cl)c2)n1,-17.6
17,O=C(COC(=O)c1cccc(Br)c1)Nc1cccc2c1C(=O)c1ccccc1C2=O,4.56
18,COc1ccccc1-n1c(SCC(=O)NC2CCCC2)nc2cccnc21,2.59
19,COc1ccc(-c2noc(C(C)n3nc(C)c([N+](=O)[O-])c3C)n2)cc1OC (centres unmarked),-15.9

row,Structure (SMILES),"hERG current change (%, negative = inhibition) at 10uM [%]"
1,COC(=O)Nc1nnc(/C=C/c2ccc(OC)cc2)s1,-9.29
2,CC(C)c1ccc(O)c(NC(=O)c2cncc(Br)c2)c1,1.03
3,Cc1ccc(NC(=O)CN(C)C(=O)c2ccc(NS(=O)(=O)c3ccc4[nH]c(=O)[nH]c4c3)cc2)cc1,-17
4,CCc1nc(C)cn1S(=O)(=O)c1cc(Br)c(C)cc1OC,-4.01
5,O=C(NCCS(=O)(=O)NC1CCCC1)c1ccc(F)cc1,9.48
6,CC(=O)Oc1ccc2ccccc2c1C(NC(=O)C(C)C)c1cccc([N+](=O)[O-])c1 (centres unmarked),-24.7
7,O=C(OCc1cn(-c2ccc(Cl)c(Cl)c2)nn1)c1ccccc1Cl,-5.05
8,CC(C)OC(=O)NC(c1ccccc1)C(Cl)(Cl)Cl (centres unmarked),-23.5
9,CN(C(=O)c1ccc(=O)n(Cc2ccc(Cl)cc2)c1)c1ccccc1,1.11
10,Cc1nc2c(O)cccc2cc1CO,8.32
11,COc1ccc(CN2CCNC(=O)C2CC(=O)NCCSc2nccn2C)cc1OC (centres unmarked),14.5
12,Cc1cc(C)n(C(=O)CCCn2nc(C)c([N+](=O)[O-])c2C)n1,-20.4
13,Cc1cc(-c2cc(C(=O)NC3CCCC3)on2)nc(NC2CCCC2)n1,4.57
14,CCOc1ccc(C(=O)NCC(c2ccco2)N2CCOCC2)cc1 (centres unmarked),6.48
15,COC(=O)C1=C(C)N(CC(C)C)C(=O)C1,6.07
16,CCN(CC(=O)Nc1ccc(NC(C)=O)cc1)C(=O)COc1ccc2ccccc2c1,-10.1
17,O=C(O)CSc1ccnc2cc(Cl)ccc12,16.2
18,CCC(=O)Nc1cc(ON=C(C)C)cc([N+](=O)[O-])c1,9.92
